{"source": "the supplement of paper PMC8728848", "experiment_in_all_cases": "glycan array binding signal (z-score within array); higher = stronger binding", "details_in_all_cases": "glycan notation: IUPAC condensed, linker removed", "key": {"[1]": {"molecular_target": "Fuc(a1-2)Gal", "outline": "(§1)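 The Consortium for Functional Glycomics database supplied 3228 glycan arrays, of which those lacking an available protein sequence were dropped. The binding signal, a within-array Z-score, was averaged across arrays of the same protein sequence and across linkers. Negative scores can be read as non-binding.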"}, "[2]": {"molecular_target": "Fuc(a1-2)Gal(b1-3)GalNAc", "outline": "as §1"}, "[3]": {"molecular_target": "Fuc(a1-2)Gal(b1-3)GalNAc(a1-3)[Fuc(a1-2)]Gal(b1-4)Glc", "outline": "as §1"}, "[4]": {"molecular_target": "Fuc(a1-2)Gal(b1-3)GalNAc(a1-3)[Fuc(a1-2)]Gal(b1-4)GlcNAc", "outline": "as §1"}, "[5]": {"molecular_target": "Fuc(a1-2)Gal(b1-3)GalNAc(b1-3)Gal", "outline": "as §1"}, "[6]": {"molecular_target": "Fuc(a1-2)Gal(b1-3)GalNAc(b1-3)Gal(a1-4)Gal(b1-4)Glc", "outline": "as §1"}, "[7]": {"molecular_target": "Fuc(a1-2)Gal(b1-3)GalNAc(b1-4)[Neu5Ac(a2-3)]Gal(b1-4)Glc", "outline": "as §1"}, "[8]": {"molecular_target": "Fuc(a1-2)Gal(b1-3)GlcNAc", "outline": "as §1"}, "[9]": {"molecular_target": "Fuc(a1-2)Gal(b1-3)GlcNAc(b1-2)Man(a1-3)[Fuc(a1-2)Gal(b1-3)GlcNAc(b1-2)Man(a1-6)]Man(b1-4)GlcNAc(b1-4)GlcNAc", "outline": "as §1"}, "[10]": {"molecular_target": "Fuc(a1-2)Gal(b1-3)GlcNAc(b1-2)Man(a1-3)[Fuc(a1-2)Gal(b1-3)GlcNAc(b1-2)Man(a1-6)]Man(b1-4)GlcNAc(b1-4)[Fuc(a1-6)]GlcNAc", "outline": "as §1"}, "[11]": {"molecular_target": "Fuc(a1-2)Gal(b1-3)GlcNAc(b1-3)Gal(b1-4)Glc", "outline": "as §1"}, "[12]": {"molecular_target": "Fuc(a1-2)Gal(b1-3)GlcNAc(b1-3)GalNAc", "outline": "as §1"}, "[13]": {"molecular_target": "Fuc(a1-2)Gal(b1-3)GlcNAc(b1-3)[Fuc(a1-2)Gal(b1-3)GlcNAc(b1-6)]GalNAc", "outline": "as §1"}, "[14]": {"molecular_target": "Fuc(a1-2)Gal(b1-3)GlcNAc(b1-3)[Gal(b1-4)GlcNAc(b1-6)]Gal(b1-4)Glc", "outline": "as §1"}, "[15]": {"molecular_target": "Fuc(a1-2)Gal(b1-3)GlcNAc(b1-3)[Neu5Ac(a2-6)Gal(b1-4)GlcNAc(b1-6)]Gal(b1-4)Glc", "outline": "as §1"}, "[16]": {"molecular_target": "Fuc(a1-2)Gal(b1-3)GlcNAc6S", "outline": "as §1"}, "[17]": {"molecular_target": "Fuc(a1-2)Gal(b1-3)[Fuc(a1-4)]GlcNAc", "outline": "as §1"}, "[18]": {"molecular_target": "Fuc(a1-2)Gal(b1-3)[Fuc(a1-4)]GlcNAc(b1-2)Man(a1-3)[Fuc(a1-2)Gal(b1-3)[Fuc(a1-4)]GlcNAc(b1-2)Man(a1-3)]Man(b1-4)GlcNAc(b1-4)GlcNAc", "outline": "as §1"}, "[19]": {"molecular_target": "Fuc(a1-2)Gal(b1-3)[Fuc(a1-4)]GlcNAc(b1-2)Man(a1-3)[Fuc(a1-2)Gal(b1-3)[Fuc(a1-4)]GlcNAc(b1-2)Man(a1-6)]Man(b1-4)GlcNAc(b1-4)[Fuc(a1-6)]GlcNAc(b1-4)[Fuc(a1-6)]GlcNAc", "outline": "as §1"}, "[20]": {"molecular_target": "Fuc(a1-2)Gal(b1-3)[Fuc(a1-4)]GlcNAc(b1-3)[Fuc(a1-3)[Gal(b1-4)]GlcNAc(b1-6)]Gal(b1-4)Glc", "outline": "as §1"}, "[21]": {"molecular_target": "Fuc(a1-2)Gal(b1-3)[Fuc(a1-4)]GlcNAc(b1-3)[Gal(b1-4)GlcNAc(b1-6)]Gal(b1-4)Glc", "outline": "as §1"}, "[22]": {"molecular_target": "Fuc(a1-2)Gal(b1-4)Glc", "outline": "as §1"}, "[23]": {"molecular_target": "Fuc(a1-2)Gal(b1-4)Glc6S", "outline": "as §1"}, "[24]": {"molecular_target": "Fuc(a1-2)Gal(b1-4)GlcNAc", "outline": "as §1"}, "[25]": {"molecular_target": "Fuc(a1-2)Gal(b1-4)GlcNAc(b1-2)Man", "outline": "as §1"}, "[26]": {"molecular_target": "Fuc(a1-2)Gal(b1-4)GlcNAc(b1-2)Man(a1-3)[Fuc(a1-2)Gal(b1-4)GlcNAc(b1-2)Man(a1-6)]Man(b1-4)GlcNAc(b1-4)GlcNAc", "outline": "as §1"}, "[27]": {"molecular_target": "Fuc(a1-2)Gal(b1-4)GlcNAc(b1-2)Man(a1-3)[Fuc(a1-2)Gal(b1-4)GlcNAc(b1-2)Man(a1-6)]Man(b1-4)GlcNAc(b1-4)[Fuc(a1-6)]GlcNAc", "outline": "as §1"}, "[28]": {"molecular_target": "Fuc(a1-2)Gal(b1-4)GlcNAc(b1-2)[Fuc(a1-2)Gal(b1-4)GlcNAc(b1-4)]Man(a1-3)[Fuc(a1-2)Gal(b1-4)GlcNAc(b1-2)Man(a1-6)]Man(b1-4)GlcNAc(b1-4)GlcNAc", "outline": "as §1"}, "[29]": {"molecular_target": "Fuc(a1-2)Gal(b1-4)GlcNAc(b1-3)Gal(b1-4)GlcNAc", "outline": "as §1"}, "[30]": {"molecular_target": "Fuc(a1-2)Gal(b1-4)GlcNAc(b1-3)Gal(b1-4)GlcNAc(b1-2)Man(a1-3)[Fuc(a1-2)Gal(b1-4)GlcNAc(b1-3)Gal(b1-4)GlcNAc(b1-2)Man(a1-6)]Man(b1-4)GlcNAc(b1-4)GlcNAc", "outline": "as §1"}, "[31]": {"molecular_target": "Fuc(a1-2)Gal(b1-4)GlcNAc(b1-3)Gal(b1-4)GlcNAc(b1-3)Gal(b1-4)GlcNAc", "outline": "as §1"}, "[32]": {"molecular_target": "Fuc(a1-2)Gal(b1-4)GlcNAc(b1-3)GalNAc", "outline": "as §1"}, "[33]": {"molecular_target": "Fuc(a1-2)Gal(b1-4)GlcNAc(b1-3)[Fuc(a1-2)Gal(b1-4)GlcNAc(b1-6)]GalNAc", "outline": "as §1"}, "[34]": {"molecular_target": "Fuc(a1-2)Gal(b1-4)GlcNAc(b1-3)[Fuc(a1-3)[Gal(b1-4)]GlcNAc(b1-6)]Gal(b1-4)Glc", "outline": "as §1"}, "[35]": {"molecular_target": "Fuc(a1-2)Gal(b1-4)GlcNAc(b1-6)GalNAc", "outline": "as §1"}, "[36]": {"molecular_target": "Fuc(a1-2)Gal(b1-4)GlcNAc6S", "outline": "as §1"}, "[37]": {"molecular_target": "Fuc(a1-2)Gal(b1-4)[Fuc(a1-3)]GlcNAc", "outline": "as §1"}}, "note": "This is one part of the list."}
{"binder": "PX9961V-pdi-562-26-562 (Parabacteroides distasonis) (protein) EIFSEITTDNYYQNSNNIYAALVNNYAKAFSTGWSDARYFLQEVTADQLMIPTRGKHGYNGGEYVRLHEHKWTVEENFVYNGWAAPFQGIALCNNTLSDFENLDFSTFKLTEETKNEYIAELRALRVWNYMFLIDFFRHVPIVTDIEEVKAQSTPLEVFNFMESELLAILPDLPKNRGVSRFDQAGVASILVRLYLNAEKWIGISKYDECEQMAQAILDGKYGEYSIDPDYRGPFRSGINGYRSKENIMEFAIKKNYFEASWLYNMWMHYQDRYSLDNDWQGWNGGNLAPSRDLYGNLYQDKLGMPFEKFPDGDIRKKAFRVISNDGDYEGFFLMGTQYKFDYEKGYGFTDEVITGTEEYNGKPLVYVDQVGRFSEGETGLAKGSHVIYGEENTGYRLIKFPWLPQSKDLFQMNSIPEIRLAEIYYSLAECKYRSGDKIGAARLLDVVRKRYYKAEDWSKFSYESNISKLTDDEFVDELGREFIGERHRRIDLIRWNRFSEGAWWDKTPDATNQDVFPIPYRALNANPLLKQTTAGF", "values": [{"measurement": "glycan array binding signal (z-score)", "setting": "[1]", "result": -0.225}, {"measurement": "glycan array binding signal (z-score)", "setting": "[2]", "result": -0.233}, {"measurement": "glycan array binding signal (z-score)", "setting": "[3]", "result": -0.31}, {"measurement": "glycan array binding signal (z-score)", "setting": "[4]", "result": -0.444}, {"measurement": "glycan array binding signal (z-score)", "setting": "[5]", "result": -0.756}, {"measurement": "glycan array binding signal (z-score)", "setting": "[6]", "result": -0.062}, {"measurement": "glycan array binding signal (z-score)", "setting": "[7]", "result": -0.38}, {"measurement": "glycan array binding signal (z-score)", "setting": "[8]", "result": -0.423}, {"measurement": "glycan array binding signal (z-score)", "setting": "[9]", "result": 1.99}, {"measurement": "glycan array binding signal (z-score)", "setting": "[10]", "result": -0.047}, {"measurement": "glycan array binding signal (z-score)", "setting": "[11]", "result": -0.698}, {"measurement": "glycan array binding signal (z-score)", "setting": "[12]", "result": -0.58}, {"measurement": "glycan array binding signal (z-score)", "setting": "[13]", "result": 2.04}, {"measurement": "glycan array binding signal (z-score)", "setting": "[14]", "result": -0.627}, {"measurement": "glycan array binding signal (z-score)", "setting": "[15]", "result": -0.196}, {"measurement": "glycan array binding signal (z-score)", "setting": "[16]", "result": -0.359}, {"measurement": "glycan array binding signal (z-score)", "setting": "[17]", "result": -0.506}, {"measurement": "glycan array binding signal (z-score)", "setting": "[18]", "result": -0.178}, {"measurement": "glycan array binding signal (z-score)", "setting": "[19]", "result": -0.63}, {"measurement": "glycan array binding signal (z-score)", "setting": "[20]", "result": -0.741}, {"measurement": "glycan array binding signal (z-score)", "setting": "[21]", "result": -0.054}, {"measurement": "glycan array binding signal (z-score)", "setting": "[22]", "result": -0.419}, {"measurement": "glycan array binding signal (z-score)", "setting": "[23]", "result": -0.072}, {"measurement": "glycan array binding signal (z-score)", "setting": "[24]", "result": -0.392}, {"measurement": "glycan array binding signal (z-score)", "setting": "[25]", "result": -0.572}, {"measurement": "glycan array binding signal (z-score)", "setting": "[26]", "result": 0.815}, {"measurement": "glycan array binding signal (z-score)", "setting": "[27]", "result": -0.251}, {"measurement": "glycan array binding signal (z-score)", "setting": "[28]", "result": -0.54}, {"measurement": "glycan array binding signal (z-score)", "setting": "[29]", "result": -0.495}, {"measurement": "glycan array binding signal (z-score)", "setting": "[30]", "result": 0.011}, {"measurement": "glycan array binding signal (z-score)", "setting": "[31]", "result": -0.793}, {"measurement": "glycan array binding signal (z-score)", "setting": "[32]", "result": 0.298}, {"measurement": "glycan array binding signal (z-score)", "setting": "[33]", "result": 0.07}, {"measurement": "glycan array binding signal (z-score)", "setting": "[34]", "result": -0.564}, {"measurement": "glycan array binding signal (z-score)", "setting": "[35]", "result": 0.625}, {"measurement": "glycan array binding signal (z-score)", "setting": "[36]", "result": -0.281}, {"measurement": "glycan array binding signal (z-score)", "setting": "[37]", "result": -0.388}]}
